Among all 75,000 compounds or so, about 20 (0.03%) were called active. This list was built around the results that the source calls inconclusive (neither active nor inactive); the mix of calls is not that of the screen. Calls follow the shape of the dose curve; as a rule, active = well fitted inhibition curve with a large enough effect; inconclusive = small, poorly fitted or top-dose-only effect; inactive = flat fitted curve, though single readings scatter. Potencies of inconclusive entries are left out as doubtful fits.
What follows are compounds tested against Caspase-1 (Homo sapiens) (UniProt P29466) (assay: qHTS Assay for Allosteric/Competitive Inhibitors of Caspase-1). Details: Caspase-1 enzyme, Ac-WEHD-AFC fluorogenic rate; activity change, negative = inhibition: at 57.5 µM (top of the series) unless noted.
In the case of `CC(C)OCCCn1c(=S)[nH]c2ccc(N3CCOCC3)cc2c1=O`, the Potency is reported as inconclusive [fluorescent, partial curve].
In the case of `COc1cccc(Cn2cccc(NC(=O)NC3CCCCC3)c2=O)c1`, the Potency is reported as inconclusive [inhibitor, partial curve].
For `N#Cc1ccc(CN2CCC3(CC2)CCN(C(=O)c2ccncc2)CC3)cc1`, the “activity change, negative = inhibition” value was inactive: -6.94%.
In the case of `CN1C(=O)c2cccc3c(S(=O)(=O)Nc4ccccn4)ccc1c23`, the Potency is reported as inconclusive [inhibitor, single point].
With `CCc1ccccc1NC(=O)CSc1ncn[nH]1` the Potency was inconclusive [inhibitor, partial curve].
With `N#C/C(=C1\CCCN1)c1ccc2ccccc2n1` the Potency was inconclusive [inhibitor, single point].
With `COc1ccc(-c2c(C)oc3cc(O)cc(O)c3c2=O)cc1OC` the Potency was inconclusive [inhibitor, single point].
For `COc1ccc2[nH]c(=O)c(CN(CCc3ccccc3)Cc3nnnn3CC3CCCO3)cc2c1` (configuration not stated), the Potency was inconclusive [inhibitor, single point].
In the case of `N#CC1=C(N)OC2=C(C(=O)CCC2)C12CCN(C(=O)OCc1ccccc1)CC2`, the “activity change, negative = inhibition” value is reported as inactive: -2.6%.
For `Cc1cc(C)c2[nH]c(=O)c(C(c3nnnn3Cc3ccc4c(c3)OCO4)N3CCCC3)cc2c1` (configuration not stated), the Potency was inconclusive [inhibitor, partial curve].
With `Cc1cc(N2CCC(C)CC2)n2ncc(-c3ccccc3)c2n1` the Potency was inconclusive [inhibitor, partial curve].
`CCNc1ncc2nc(-c3cn(C)c4ccccc34)c(=O)n(C)c2n1` was tested, and the Potency was inconclusive [inhibitor, full curve].
In the case of `CCC1c2ccc(C)n2CCN1C(=O)Nc1ccccc1OC` (configuration not stated), the Potency is reported as inconclusive [inhibitor, partial curve].
In the case of `COc1ccc(OCC(=O)Nc2ccccc2OC(F)F)cc1`, the Potency is reported as inconclusive [inhibitor, partial curve].
For `O=C1C2C3C=CC(C3)C2C(=O)N1CNc1ccc(O)cc1` (configuration not stated), the Potency was inconclusive [inhibitor, partial curve].
`COC(=O)c1ccc(C(NC(=O)OCc2ccccc2)/C(C)=C/[C@@H](C)C(=O)NCc2cc(F)cc(F)c2)cc1` (some centres not stated) was tested, and the Potency was inconclusive [inhibitor, partial curve].
In the case of `Cc1nnc(C)c2c(C)n(Cc3ccc4c(c3)OCO4)c(C)c12`, the Potency is reported as inconclusive [inhibitor, partial curve].
In the case of `Cc1cc(C)c2c(n1)nn1c(NCCCN3CCOCC3)cc(C)nc21`, the Potency is reported as inconclusive [inhibitor, partial curve].
`CC(=O)c1c(N2CCN(Cc3ccc4c(c3)OCO4)CC2)nc(=S)n(-c2ccccc2)c1C` was tested, and the activity change, negative = inhibition was inconclusive: -15.5% [inhibitor].
In the case of `Cc1ccc(C23CC4CC(CC(NC(=O)N5CCN(C)CC5)(C4)C2)C3)cc1`, the “activity change, negative = inhibition” value is reported as inactive: -0.243%.
With `Cc1ccc(C2C(C#N)=C(N)Oc3c2oc(CO)cc3=O)o1` (configuration not stated) the Potency was inconclusive [inhibitor, single point].
For `CCOc1cccc(C=Nc2cc(C)cc(C)c2O)c1O`, the activity change, negative = inhibition was inconclusive: -17.6% [inhibitor].
With `CCSCCOC(=O)C1=C(C)NC(=O)NC1c1cccc(OC)c1OC` (configuration not stated) the Potency was inconclusive [inhibitor, partial curve].
For `COc1ccc(-c2nc(N)ncc2Oc2ccccc2Br)c(O)c1`, the Potency was inconclusive [inhibitor, partial curve].
`O=c1c(-c2cccc(Cl)c2)nc2cncnc2n1Cc1ccccc1` was tested, and the “activity change, negative = inhibition” value was inactive: -7.26%.
For `Cc1ccc2nc(NCc3ccco3)c(C=NCc3ccco3)c(=O)n2c1`, the Potency was inconclusive [inhibitor, partial curve].
`O=C(NCc1ccco1)Nc1ccc2nsnc2c1` was tested, and the Potency was inconclusive [inhibitor, partial curve].
In the case of `CN(C)c1ncc2nc(-c3cn(C)c4ccccc34)c(=O)n(C[C@H]3CCCO3)c2n1`, the Potency is reported as inconclusive [fluorescent].
In the case of `CN1CCN(C(=O)c2nc3ccc(Cl)cc3[nH]2)CC1`, the “activity change, negative = inhibition” value is reported as inactive: -0.191%.
`CC1=CC(=C(C#N)c2nc3ccccc3s2)C=C(C)N1Cc1ccco1` was tested, and the Potency was inconclusive [inhibitor, full curve].
With `COCCN1Cc2cccc(C(=O)Nc3ccc(S(=O)(=O)N4CCCCC4)cc3)c2C1=O` the “activity change, negative = inhibition” value was inactive: -0.106%.
`CC(C)CN1CC[C@@]2(CCCN(C(=O)c3ccco3)C2)C1` was tested, and the “activity change, negative = inhibition” value was inactive: -1.17%.
With `N#CC1=C2SCN(Cc3ccco3)CN2C(=O)CC1c1c(F)cccc1Cl` (configuration not stated) the Potency was inconclusive [inhibitor, single point].
With `COC(=O)C1C(=O)C2=C(CC1C)NC(C)=C(C(=O)OCc1ccc(OC)cc1)C2c1ccc(C)o1` (configuration not stated) the activity change, negative = inhibition was inconclusive: -16.8% [inhibitor].
For `Cc1ccc2c(c1)N(CC(=O)c1cccc(Cl)c1)C(=O)C(C)O2` (configuration not stated), the “activity change, negative = inhibition” value was inactive: -1.86%.
In the case of `Cc1sc(NC(=O)c2ccc(Cl)s2)c(C(N)=O)c1C`, the Potency is reported as inconclusive [inhibitor, partial curve].
With `Oc1ccc2ccccc2c1C=NCc1c(O)ccc2ccccc12` the activity change, negative = inhibition was inactive: -2.14% [at 11.5 µM].
In the case of `CCOc1ccc(C(=O)COC(=O)CC)cc1`, the “activity change, negative = inhibition” value is reported as inactive: -0.124%.
With `COCCN(C(=O)CCCC(=O)Nc1ccccn1)C(C(=O)NC1CCCCC1)c1ccc(C)cc1` (configuration not stated) the “activity change, negative = inhibition” value was inactive: -0.0546%.
In the case of `OC1CN=C2CCCc3c2n(c2ccc(Cl)cc32)C1` (configuration not stated), the Potency is reported as inconclusive [inhibitor, partial curve].
`COc1cccc(C(=O)NCC(c2cccnc2)N2CCN(c3ccccc3OC)CC2)c1` (configuration not stated) was tested, and the “activity change, negative = inhibition” value was inactive: -9.4%.
With `CCCCn1c(NC(=O)c2ccccc2)c(C#N)c2nc3ccccc3nc21` the Potency was inconclusive [inhibitor, partial curve].
For `Cc1cccc2cc(C#N)c(NCCNC(=O)NC3CCCCC3)nc12`, the Potency was inconclusive [inhibitor, full curve].
In the case of `Cc1ccc(NC(=O)c2ccccc2F)nc1`, the “activity change, negative = inhibition” value is reported as inactive: 1.65%.
`O=C(O)c1nc(-c2ccccc2)[nH]c1C(=O)O` was tested, and the Potency was inconclusive [inhibitor, single point].
With `CC1CCN(CCCn2c(=S)[nH]c3ccc(N4CCOCC4)cc3c2=O)CC1` the Potency was inconclusive [inhibitor, partial curve].
`COCCCNc1oc(COc2ccc(Cl)cc2Cl)nc1C#N` was tested, and the Potency was inconclusive [inhibitor, partial curve].
For `CCOc1ccc2[nH]c(=O)c(CN(CCO)C(c3nnnn3C3CCCCC3)C(C)C)cc2c1` (configuration not stated), the Potency was inconclusive [inhibitor, partial curve].
In the case of `Cc1cc2c(ccc3[nH]onc32)n1`, the Potency is reported as inconclusive [inhibitor, partial curve].
`CC(=O)C(C)Oc1ccc2c3c(c(=O)oc2c1)CCCC3` (configuration not stated) was tested, and the “activity change, negative = inhibition” value was inactive: -2.51%.
`O=C1c2ccccc2C(=O)c2c(O)c(O)cc(O)c21` was tested, and the Potency was “inactive”.
In the case of `CCOC(=O)c1ccc(NC(=O)c2ccc(C)c(S(=O)(=O)N3CCOCC3)c2)cc1`, the “activity change, negative = inhibition” value is reported as inactive: -2.66%.
`Cc1nc(NC2CCCCC2)c2nc(-c3ccccc3)n(CCCN3CCOCC3)c2n1` was tested, and the “activity change, negative = inhibition” value was inactive: 0.415%.
With `O=C(NC1=NCCS1)C1COc2ccccc2O1` (configuration not stated) the “activity change, negative = inhibition” value was inactive: -0.203%.
In the case of `CC1CCc2cccc3c2N1c1cc(C#N)c(C#N)cc1O3` (configuration not stated), the Potency is reported as inconclusive [inhibitor, single point].
`CC(C)c1cc(C(=O)Nc2cccc(Cl)c2)no1` was tested, and the “activity change, negative = inhibition” value was inactive: -1.37%.
In the case of `ICCc1ccccc1`, the Potency is reported as inconclusive [inhibitor, single point].
`Cn1c(=O)c2c(SCC(=O)N3CCC(Cc4ccccc4)CC3)nc(C3CC3)nc2n(C)c1=O` was tested, and the “activity change, negative = inhibition” value was inactive: -2.4%.
For `CC(=O)OC(/C(O)=C(\C#N)c1nc2ccccc2[nH]1)c1ccccc1` (configuration not stated), the Potency was inconclusive [inhibitor, partial curve].
`CC(=O)c1sc2nc(-c3cccs3)cc(C(F)(F)F)c2c1N` was tested, and the Potency was inconclusive [inhibitor, partial curve].
`CO[C@H]1COC(=O)[C@H]2CCCN2C(=O)[C@@H](C)COC(=O)C/C=C\[C@@H]1C` was tested, and the activity change, negative = inhibition was inactive: -1.92% [at 11.5 µM].
For `COc1nc(-c2ccccc2)ccc1-c1noc(COc2ccccc2)n1`, the activity change, negative = inhibition was inconclusive: -15.1% [inhibitor].
`CCN(CC)C(=O)c1cc2c(=O)n3cccc(C)c3nc2n1C` was tested, and the Potency was inconclusive [inhibitor, single point].
In the case of `CCNc1nc(NC(C)C)nc(N(C#N)Cc2ccccc2)n1`, the “activity change, negative = inhibition” value is reported as inactive: -2.68%.
`Cc1nc2[nH]onc2c2nccc(=O)c12` was tested, and the Potency was inconclusive [inhibitor, partial curve].
For `Clc1ccc(OCc2nc(-c3ccccn3)n[nH]2)cc1`, the “activity change, negative = inhibition” value was inactive: 0.797%.
For `COc1ccc2cc(C(c3nnnn3C3CCCC3)N3CCc4ccccc4C3)c(=O)[nH]c2c1` (configuration not stated), the Potency was inconclusive [inhibitor, single point].
With `N#CC(C(=O)c1ccc(S(=O)(=O)N2CCCCCC2)cc1)c1nc2ccccc2[nH]1` (configuration not stated) the activity change, negative = inhibition was inconclusive: -15.5% [inhibitor].
In the case of `CCOC(=O)N/N=C1/C[C@@H](O)[C@@H](O)[C@@H]2[C@@H]3C(=O)N(C[C@@H]4CCCO4)C(=O)[C@H]3CC[C@@H]12`, the Potency is reported as inconclusive [inhibitor, single point].
`CCOC(=O)CSc1nc2c(sc(=S)n2Cc2ccco2)c(=O)n1-c1ccccc1` was tested, and the “activity change, negative = inhibition” value was inactive: -2.12%.
For `COc1ccc(Cn2c(C)nc3c(c2=O)c2nc4ccccc4nc2n3Cc2ccco2)cc1`, the Potency was inconclusive [inhibitor, partial curve].
For `N=c1n(CCO)c2ccccc2n1CCOc1ccc(Cl)cc1Cl`, the “activity change, negative = inhibition” value was inactive: -2.78%.
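For activity change, negative = inhibition in this document: plate controls were vehicle for no effect and no substrate for full effect.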
Potency is read from the fitted curve at half-maximal effect; tags tell the direction and shape of the fitted curve or compound fluorescence and quenching.
